Source: the supplement of paper PMC4466236
In all, about 33,000 sequences were measured (“E-score (dimensionless, -0.5 to 0.5)”: median about -0.058, highest 2% from about 0.35 on). Some of the results follow.

System: MvaT
Assay: PBM 8-mer E-score (mean of HK and ME arrays) (E-score (dimensionless, -0.5 to 0.5)); higher = stronger relative binding preference; most listed sequences are background and not binding sites
Method in brief: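 Full-length P. aeruginosa MvaT, with glutathione S-transferase fused to its N-terminus (cloned into pTH6838 by isothermal assembly), was tested by protein binding microarray using a previously described protocol. Two universal double-stranded 60-mer arrays (ME and HK) were used, each with a constant 25-mer primer region and a variable 35-mer region covering all 8-mers. The rank-based 8-mer E-score (-0.5 to 0.5) is the mean of the two arrays, parsed with a custom Python script.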

| Sequence | PBM 8-mer E-score |
| --- | --- |
| GACCAAGA | -0.145 |
| TTCACAAA | 0.151 |
| CAGGGATA | -0.0205 |
| CGCACGTA | -0.1 |
| ACGCCCCC | -0.372 |
| CCCAGCTA | -0.153 |
| GCTCATCC | -0.279 |
| AAACCGCC | -0.173 |
| GAATATTA | 0.4 |
| GGGCGTAC | -0.152 |
| TTACCTAA | 0.223 |
| GTTGAAGA | 0.0288 |
| ACCATTTA | 0.173 |
| CTGCGGTA | 0.0276 |
| CCAATGCG | -0.107 |
| ACCATAAG | 0.0319 |
| ATATCTGA | 0.191 |
| AGACGACA | -0.18 |
| CATTCCCA | -0.0789 |
| ATGCCGCA | 0.00868 |
| ACCTGGAA | -0.067 |
| GAGATTGA | -0.0698 |
| CCCCTCGA | -0.217 |
| CAATGGGC | -0.289 |
| CCCAGGTA | -0.0822 |

| Sequence | PBM 8-mer E-score |
| --- | --- |
| AGAGAGTA | 0.0537 |
| TCTGGAAA | 0.0485 |
| GCTTATAC | 0.166 |
| AAGGGATG | -0.0857 |
| CGCTGCTA | -0.044 |
| TCCACCGA | -0.192 |
| ACGTCCAA | -0.142 |
| GTTGGTAA | 0.093 |
| GAGGCAAC | -0.183 |
| ACGATTCG | -0.0701 |
| GGCTTAAC | -0.0456 |
| ATGAGCGG | -0.204 |
| CGTGGAGA | -0.112 |
| GATCTCAC | -0.0393 |
| TCTCGTCA | -0.0921 |
| ATCTATGC | -0.115 |
| CCGACTAA | -0.0102 |
| AAGATCAA | 0.22 |
| GACACTAA | 0.292 |
| CTGCATGC | -0.0882 |
| AGGGTCTC | -0.351 |
| CTCCGCGC | -0.207 |
| AATAGCCA | -0.00268 |
| GTTGCAAA | 0.129 |
| AATTAATC | 0.366 |

| Sequence | PBM 8-mer E-score |
| --- | --- |
| AGTGCCTC | -0.204 |
| AAACGCAC | -0.11 |
| GAGAACTC | -0.301 |
| AACAGCCC | -0.264 |
| ATCGTACG | -0.0757 |
| CGCGATAG | -0.182 |
| AGATCCAC | -0.0302 |
| AATGTGAC | 0.0501 |
| GAGCGGAA | -0.165 |
| CACGAGGG | -0.271 |
| AGGACTAA | -0.0184 |
| AAAGTCAT | 0.0922 |
| AGCCATTG | -0.029 |
| AGCAAGGA | -0.0923 |
| ACAGGTAG | -0.127 |
| CACCCGTC | -0.177 |
| CAAGTGGG | -0.0905 |
| AAACGCGC | 0.104 |
| CGTGTGCA | -0.0742 |
| AACAACAA | 0.337 |
| CAACGGCC | -0.19 |
| AAGTGTAA | 0.271 |
| ACTCACTG | -0.0896 |
| ATCTGCTC | -0.146 |
| AAACACAT | 0.16 |

| Sequence | PBM 8-mer E-score |
| --- | --- |
| AGGGCCCT | -0.239 |
| TACTGCTA | -0.0808 |
| AAATGACT | 0.114 |
| GCAGGTTA | -0.0406 |
| ATCAGACG | -0.0188 |
| ACTGCGGG | -0.0545 |
| CCCAATAA | 0.14 |
| ACGAGGGG | -0.273 |
| GCGTTGAC | -0.0454 |
| TGGAGCAA | -0.161 |
| AGAATAGC | -0.0532 |
| ATCCTCGG | -0.28 |
| AGTCGTAC | -0.107 |
| AGCTTACG | -0.217 |
| GAGACAGC | -0.199 |
| CCCACCTC | -0.162 |
| GACCCTCA | -0.25 |
| GTATAAGA | 0.278 |
| AATGCTGA | -0.0342 |
| GCCGCTGA | -0.231 |
| TGCCCGCA | -0.214 |
| CGAAGTCC | -0.166 |
| ATATACGC | 0.291 |
| TCCACAGA | -0.0394 |
| GAACTCCA | -0.136 |

| Sequence | PBM 8-mer E-score |
| --- | --- |
| CGAACTGA | -0.0428 |
| CGGAGACG | -0.19 |
| CGCCACTA | 0.0411 |
| ATCGTGCG | 0.00859 |
| CGCCTAAG | -0.113 |
| CCAAGTCG | -0.149 |
| AATTATGA | 0.317 |
| GCAGATAA | 0.253 |
| TCGACCCA | -0.167 |
| ATGCATGC | -0.162 |
| AACGGAAC | -0.066 |
| AGCAATAA | 0.174 |
| GACTTGCA | -0.075 |
| AGGCAAAT | 0.156 |
| AAAAACAG | 0.16 |
| ATTCAAAT | 0.221 |
| CTCGCTAA | 0.00144 |
| AGATCGCT | -0.111 |
| GAGCGTTA | -0.0123 |
| ATTGGCAC | 0.11 |
| CTACGGAC | -0.187 |
| GATACGGA | -0.0413 |
| TAAGATCA | 0.126 |
| GCAAGCCA | -0.218 |
| GAATATGC | 0.119 |

| Sequence | PBM 8-mer E-score |
| --- | --- |
| AGTTGTAT | 0.337 |
| ATTACGGG | 0.108 |
| ACCCCGCA | -0.305 |
| CCTGTTGA | -0.0613 |
| AGAGTACA | 0.0581 |
| AGACACCA | -0.0804 |
| GAGCTATA | 0.0681 |
| AGTTATCA | 0.242 |
| CGCCTCCG | -0.283 |
| ATTCTCTG | 0.0817 |
| ACCCGAGC | -0.199 |
| TGTATCAA | 0.186 |
| AGAACTAT | 0.236 |
| GGTGTCAC | -0.232 |
| ATACCGGG | 0.0584 |
| CTACTGAC | -0.0554 |
| AGTGCTGG | 0.0396 |
| GCCAGACA | -0.239 |
| CGGGAAGA | -0.216 |
| ATGTTATC | 0.308 |
| ACAAACTG | 0.0992 |
| AGGCGAGG | -0.263 |
| ATGGGGAC | -0.108 |
| ACCTCTCA | -0.199 |
| CTACTAAC | 0.165 |

| Sequence | PBM 8-mer E-score |
| --- | --- |
| GCCGCCGC | -0.306 |
| ATGCCGAC | -0.143 |
| ACTACCCG | -0.121 |
| CTCATCGA | -0.0915 |
| AAAGCAGC | -0.00509 |
| AACGCCAC | -0.126 |
| CATGATTA | 0.228 |
| CAAAGACG | -0.0962 |
| ACGAGTTC | -0.00078 |
| CTACCTTC | -0.249 |
| CAGCAATG | -0.191 |
| AGACGGTG | -0.11 |
| CAAGACAG | -0.0393 |
| GGCCAACA | -0.00591 |
| ACACAGAT | 0.102 |
| CCCAGCGA | -0.141 |
| CCACTAGC | -0.28 |
| AATTCATG | 0.172 |
| CCACAAGG | -0.331 |
| GCGGATCC | -0.275 |
| AGGTGAAA | 0.0211 |
| ACTCACAA | -0.0191 |
